Test results from patent US9662390B2, “Use of opioid antagonists to attenuate endothelial cell proliferation and migration” (THE UNIVERSITY OF CHICAGO, priority 2005, dated 2017).
Read-outs that look alike come from different tables or passages of the source.

Tested on: Human Microvascular Endothelial Cells (HMVEC)
Type: cell-based
Conditions: for effect on DAMGO-induced endothelial cell migration: DAMGO 1 μM; for effect on morphine-induced endothelial cell migration: morphine constant at 0.1 μM, antagonist 0.001 to 10.0 μM; for effect on endothelial cell migration: substance alone, 0.001 to 10.0 μM, 4 hours, cells migrated per 10 high power fields

SMILES | effect on DAMGO-induced endothelial cell migration | effect on DAMGO-induced endothelial cell migration (listed as methylnaltrexone) | MNTX concentration that significantly blocks morphine-induced migration (morphine 10^−7M) | effect on morphine-induced endothelial cell migration | effect on morphine-induced endothelial cell migration (listed as methylnaltrexone) | effect on endothelial cell migration
C[N+]1(CC2CC2)CCC23c4c5ccc(O)c4OC2C(=O)CCC3(O)C1C5 (stereo not shown) [MNTX, N-methylnaltrexone] | blocked | decreased migration in a concentration-dependent manner | 10^−7 M | attenuated | decreased migration in a concentration-dependent manner | no effect on endothelial cell migration
CN1CC[C@]23c4c5ccc(O[C@@H]6O[C@H](C(=O)O)[C@@H](O)[C@H](O)[C@H]6O)c4O[C@H]2[C@@H](O)C=C[C@H]3[C@H]1C5 [M3G, morphine-3-glucuronide] | – | – | – | – | – | exerts no angiogenic activity
